Experimental data as given in the supplement of paper PMC9174493.
Where a name gives a salt, the structure may show the parent alone. This is one part of the list. Single values of this set are uncertain. Values with irradiation are relative to irradiated vehicle.

The molecules below were run on A549-Dual (assay: ISRE reporter (Lucia luciferase) activity, viability-corrected, relative to vehicle (fold change vs vehicle); higher = more activation of STING-IRF / NF-kB immune response reporter). Conditions: 0.1 µM; irradiation: none.
`CCC(=O)OCC(=O)C1(OC(=O)CC)C(C)CC2C3CCC4=CC(=O)C=CC4(C)C3(Cl)C(O)CC21C` (stereo not given) [Beclomethasone dipropionate] was tested, and the ISRE reporter was 0.231.
`CC(=O)Nc1ccc(OC(=O)c2ccccc2OC(C)=O)cc1` [Benorylate] was tested, and the ISRE reporter was 0.81.
Molecule `Nc1ccccc1NC(=O)c1ccc(CNC(=O)OCc2cccnc2)cc1` [Entinostat (MS-275)] has an ISRE reporter of 1.13.
`COc1cc(N2CCC(N3CCN(C)CC3)CC2)ccc1Nc1ncc(Cl)c(Nc2ccccc2P(C)(C)=O)n1` was tested, and the ISRE reporter was 1.1.
`Cc1c(-c2ccc(-c3ccccc3F)cc2)nc2ccc(F)cc2c1C(=O)O` [Brequinar] gave an ISRE reporter of 0.924.
With `CCC1/C=C(\C)CC(C)CC(OC)C2OC(O)(C(=O)C(=O)N3CCCCC3C(=O)OC(/C(C)=C/C3CCC(Cl)C(OC)C3)C(C)C(O)CC1=O)C(C)CC2OC` (stereo not given) [Pimecrolimus] the ISRE reporter was 1.23.
`COC(=O)/C=C/C(=O)OC` [Dimethyl Fumarate] was tested, and the ISRE reporter was 0.672.
For `Cc1cc(Nc2ncc(Cl)c(Nc3ccccc3S(=O)(=O)C(C)C)n2)c(OC(C)C)cc1C1CCNCC1` [Ceritinib (LDK378)], the ISRE reporter was 1.09.
For `Nc1nc(Cl)nc2c1ncn2C1CC(O)C(CO)O1` (stereo not given) [Cladribine], the ISRE reporter was 0.996.
`CC12CCC(=O)C=C1CCC1C2C(O)CC2(C)C1CCC2(O)C(=O)CO` (stereo not given) [Hydrocortisone] gave an ISRE reporter of 0.501.
With `Cc1coc2c1C(=O)C(=O)c1c-2ccc2c(C)cccc12` [Tanshinone I] the ISRE reporter was 0.994.
`Cn1cnc([N+](=O)[O-])c1Sc1ncnc2nc[nH]c12` [Azathioprine] showed an ISRE reporter of 1.16.
Molecule `O=c1ccc2cc3ccoc3cc2o1` [Psoralen] has an ISRE reporter of 0.697.
`CCC(=O)NS(=O)(=O)c1ccc(-c2c(-c3ccccc3)noc2C)cc1` [Parecoxib] was tested, and the ISRE reporter was 0.893.
`COc1ccc(-c2ccc3cc(C(=O)O)ccc3c2)cc1C12CC3CC(CC(C3)C1)C2` [Adapalene] gave an ISRE reporter of 1.31.
`CCC(C(=O)O)c1ccc(N2Cc3ccccc3C2=O)cc1` (stereo not given) [Indobufen] was tested, and the ISRE reporter was 0.975.
Work on `COC1CC2CCC(C)C(O)(O2)C(=O)C(=O)N2CCCCC2C(=O)OC(C(C)CC2CCC(O)C(OC)C2)CC(=O)C(C)/C=C(\C)C(O)C(OC)C(=O)C(C)CC(C)/C=C/C=C/C=C/1C` (stereo not given) [Rapamycin (Sirolimus)] yielded an ISRE reporter of 1.32.
In the case of `COc1ccc(C2CNC(=O)C2)cc1OC1CCCC1` (stereo not given) [Rolipram], the ISRE reporter is reported as 0.943.
`Nc1nc(N)c2nc(-c3ccccc3)c(N)nc2n1` [Triamterene] showed an ISRE reporter of 0.877.
In the case of `CN(C)CCN1C(=O)c2cccc3cc(N)cc(c23)C1=O` [Amonafide], the ISRE reporter is reported as 1.15.
With `CN1CCCC1CCOC(C)(c1ccccc1)c1ccc(Cl)cc1.O=C(O)/C=C/C(=O)O` (stereo not given) [Clemastine Fumarate] the ISRE reporter was 1.42.
`CC12C=CC(=O)C=C1CCC1C3CC(O)C(O)(C(=O)CO)C3(C)CC(O)C12F` (stereo not given) [Triamcinolone] gave an ISRE reporter of 0.316.
With `CC1CC2C3CCC4=CC(=O)C=CC4(C)C3C(=O)CC2(C)C1(O)C(=O)CO` (stereo not given) [Meprednisone] the ISRE reporter was 0.875.
With `CCS(=O)(=O)O.COC(=O)c1ccc2c(c1)NC(=O)/C2=C(\Nc1ccc(N(C)C(=O)CN2CCN(C)CC2)cc1)c1ccccc1` [Nintedanib Ethanesulfonate Salt] the ISRE reporter was 1.12.
For `CCCCCCCCCCCCCCCCCCOP(=O)([O-])OC1CC[N+](C)(C)CC1` [Perifosine (KRX-0401)], the ISRE reporter was 1.27.
Molecule `CCC1(O)CC2CN(CCc3c([nH]c4ccccc34)C(C(=O)OC)(c3cc4c(cc3OC)N(C=O)C3C(O)(C(=O)OC)C(OC(C)=O)C5(CC)C=CCN6CCC43C65)C2)C1` (stereo not given) [Vincristine] has an ISRE reporter of 1.19.
`Cl.Nc1ccn(C2OC(CO)C(O)C2O)c(=O)n1` (stereo not given) [Cytarabine hydrochloride] was tested, and the ISRE reporter was 1.38.
`CC(=O)OC(C)C(C)C(=O)OCC12C3CC4(C)C(=CCC5C6(C)CCC(OC7OC(C(=O)[O][Na])C(OC8OC(CO)C(O)C(O)C8O)C(O)C7OC7OCC(O)C(O)C7O)C(C)(CO)C6CCC54C)C1CC(C)(C)C(O3)C2O` (stereo not given) [Sodium Aescinate] showed an ISRE reporter of 0.939.
Molecule `CCC(=O)OC1(C(=O)SCF)C(C)CC2C3CC(F)C4=CC(=O)C=CC4(C)C3(F)C(O)CC21C` (stereo not given) [Fluticasone propionate] has an ISRE reporter of 0.234.
In the case of `CCCCC1(COC(=O)CCC(=O)O)C(=O)N(c2ccccc2)N(c2ccccc2)C1=O` [Suxibuzone], the ISRE reporter is reported as 1.14.
Work on `CS(=O)(=O)Nc1cc2occ(NC=O)c(=O)c2cc1Oc1ccccc1` [Iguratimod] yielded an ISRE reporter of 1.36.
In the case of `COc1cc2nccc(Oc3ccc(NC(=O)Nc4cc(C)on4)c(Cl)c3)c2cc1OC` [Tivozanib (AV-951)], the ISRE reporter is reported as 0.862.
In the case of `Cc1ccc(S(=O)(=O)O)cc1.NC(=O)c1cccc2cn(-c3ccc(C4CCCNC4)cc3)nc12` (stereo not given) [Niraparib (MK-4827) tosylate], the ISRE reporter is reported as 0.989.
For `CC(C)OC(=O)CCC/C=C\CC1C(O)CC(O)C1CCC(O)CCc1ccccc1` (stereo not given) [Latanoprost], the ISRE reporter was 0.719.
In the case of `O=c1[nH]cc(F)c(=O)[nH]1` [Fluorouracil (5-Fluoracil, 5-FU)], the ISRE reporter is reported as 1.1.
With `CC1(C(=O)O)CCC2(C)CCC3(C)C(=CC(=O)C4C5(C)CCC(OC6OC(C(=O)O)C(O)C(O)C6OC6OC(C(=O)O)C(O)C(O)C6O)C(C)(C)C5CCC43C)C2C1.N.N` (stereo not given) [Diammonium Glycyrrhizinate] the ISRE reporter was 1.08.
In the case of `CC1(C)CCC(CN2CCN(c3ccc(C(=O)NS(=O)(=O)c4ccc(NCC5CCOCC5)c([N+](=O)[O-])c4)c(Oc4cnc5[nH]ccc5c4)c3)CC2)=C(c2ccc(Cl)cc2)C1` [Venetoclax (ABT-199, GDC-0199)], the ISRE reporter is reported as 0.763.
`CCN(CC)Cc1cc(Nc2ccnc3cc(Cl)ccc23)ccc1O.Cl.Cl` [Amodiaquine hydrochloride] showed an ISRE reporter of 1.09.
With `CCN(C(=O)c1c(O)c2c(Cl)cccc2n(C)c1=O)c1ccccc1` [Laquinimod] the ISRE reporter was 1.58.
`O=C(c1ccc(OCCN2CCCCC2)cc1)c1c(-c2ccc(O)cc2)sc2cc(O)ccc12` [Raloxifene] showed an ISRE reporter of 1.1.
